Laboratory results as given in PubChem BioAssay (NCI).
Some structures have more than one record in an assay (separate samples or runs), and their calls can disagree.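 Compound tested at a single concentration for 48 hours in 96-well plates; a percent growth value below 10 was scored as active.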 For part of its entries the source gives two or more results. They are shown here; other results are not. The source may hold further records. These are repeated runs of one drug, at its own concentration, as given; each value is one run. Brackets with × count equal records among those shown.

Legend:
Assay in all cases: NCI-60 one-dose screen, 48 h (100 = growth as untreated, 0 = no growth, -100 = all killed)
[1] = tested on: UACC-62 melanoma; conditions: 2.5 mM
[2] = tested on: LOX IMVI melanoma; conditions: 2.5 mM
[3] = tested on: SK-MEL-28 melanoma; conditions: 2.5 mM; runs of 1991

O=c1[nH]cc(F)c(=O)[nH]1
growth ([1]; runs of 1997): active: -90.4, 0.112, -9.66, -2.88, -26.9, -8.41, 8.2, -11, -17.8, -13.3, -24, -63.7, -94.9, 1.09, -39.6, -76.4, -43.1, 0.319, -7, 7.9, -12.2, -44.1, -100, -71.1, -3.83, -16.2, -10.9, -4.52, 0.679, -33.2, -39.3, -17.1, -7.04, -53.6, -21.5, -51.8, -32.3, -26, -32.8, -22.6, -92, -10.4, 1.67, -39.1, -56.8, -82.7, -80.8, -92.3, -25.8, -15.7, -18.5, -18.9, -48.2% and inactive: 27.5, 20.6, 12, 14.7, 15.2, 83.1, 111, 13.3% | growth ([1]; runs of 1998): inactive: 104, 21.6, 11.7, 15.6, 17.3, 12.6% and active: 3.66, -54.1, -54.3, -54.5, -54.7, -42.1, -96, -96.8, -98.4, -95.2, -74.2, -33.2, -37, -63.1, 6.15, -55.5, -24.5, -0.113, 5.31, -24.6, -57.3, -42.4, -54.9, 7.52, 4.57, 6.56, -11.2, 9.94, 9.22, -39.9, -30.7, -33.7, -28.9, -30.2, -19.4, -40.9, -39.2, -20.1, -42.5, -22.6, -76.2, -47.1, -60.5, -10.1, -22.4, -31.4 (2×), -40.2, -22.1, -61.4, -57.9, -39.4, -49.2, -40.7, -59.7, -59.1, 3.38, -24.2, -31, -34.6, -35.3, -48.5, -5.09, -41, -45, 1.36% | growth ([1]; runs of 1999): inactive: 22.4% and active: -3.35, -44.7, -33.1, -24.9, -60.6, -59.9, -35.2, -45.4, -33.4, -38, 7.23, -69.6, -37.3, -42.4, -98.1, -60, -28.5, -79.5, -17.7, -93.8, -93.1% | growth ([1]; runs of 2000): active: -91.8, -74.2, -87, -93.7% | growth ([2]; runs of 1991): active: 3.5, 1.31, -2.98, -0.319, 4.08, -6.14, 1.55, -68.8, -73.8, -8.91, -20, -83.7, 4.96, -28.5, -24.4, -72, -87% | growth ([2]; runs of 1992): active: 3.28, -36.9, -46.1, -24.5, -20.5, -39.8, -64.6 (2×), -30.9, 2.74, 8.04, -16.5, 0.141, -35.3, -86.5, 1.75, 5.15, 4.53, -17, -5.52, -20.4, 1.93, 7.89, 0.242, -68.5, -51.5 (2×), -82.1, -75, -72.4, -82.9, -55.3, -17.2, -5.59, -41.8, 2.36, -19.5, 0.445, -32.7, 4.15, -13.7, -85.4, -38.3, -26.8, -53.3, -71.5, -55.7, 1.07, -8.14, -27.7, -58.2, -40.5, 0.592, -38.7, -43.7, -8.17, -34.8, -33.8 (2×), -26, -11.9, -48.5, -46.6, -36.4, -10.9, -7.57, -18.3, -31.1, -4.84, -97.8, -51.8, -94.4, -89.2, -34.3, 1.38, -56.3, -56.2 (2×), -53.8, -31.2, 2.15, -45.7, -6.73, -30, -88.6 (2×), -91.6, -86, -19.8 (2×), 0.111, -46.9, -8.42, -64, -32.9, -25.4, -16.9, -13.4, -49.8, -3.94, -91.7, -80.9, -29.5, -4.25, -9.51, -31.6, -78, -89.3, -0.13, -9.57% and inactive: 19.3, 48.1, 11, 83.9% | growth ([2]; runs of 1993): active: 6.83, -59.7, 3.11, -4.27, -49.6, -0.536, -28, -58.9, -31.4, -33.4, -11.3, 8.61, -58.6, -40.6, -29.5, -5, 2.52, 1.92, -8.96, 5.1, 7.51, -50.6, 3.14, 8.23, -21.2, -66.4, -73.7, -41.8, -43.5, -80.9, -3.03, 0.206, -12.9, -46.2% and inactive: 10.9, 18.3, 84.6, 10.5% | growth ([2]; runs of 1994): active: 9.63, 0.0947, 7.33, -16.8, -50.2, 5.97, -13.9, -45.7, -35.8, 0.571, 1.95, 5.69, -2.6, -22.2, 2.82, -8.01, -25.5, -25.3, 4.5, -81.4, 8.88, 0.648, 0.99, -23, -34.7, 3.74, 0.385, -11% and inactive: 12.9%, 12.5%, 14.9% | growth ([2]; runs of 1995): active: 1.78, -84.3, 8.74, -2.48, -21, -81, -27.6, -76.4, -20.9, -48, -59.9, -17.4, -41.3, -61.3, -43.9, -73.4, -90.2, 0.153, -15.1, 8.96, 2.4, -16.4 (2×), -16.6, -59.6, -37.5, -13.4, -22.2, 2.54, -23.7, -4.3, -31, 1.72% | growth ([2]; runs of 1996): active: -7.1, -12.5, -7.48, 0.79, -85.6, 7.08, 0.0355, 5.23, -44.8, 2.79, -6.61, 3.4, -14.2, -14.7, -28.2, 4.03, 9.89, -12.7, 4.84, 0.836, -38.5, -4.98, -10.5, -12.1, 1.28, 1.78, -25.5, -24, -39.5, -37.9, -18.9, -12.9, 7.18, -14.5, -26.6, -51.7, -59.1, -8.8, 0, -18.4, 2.52, -20.6, 6.39, -6.2, -0.928, 5.48, 6.81, -60.9, -17.6, -30.7% and inactive: 15.2, 38, 11, 17.4% | growth ([2]; runs of 1997): active: -9.83, 3.19, -17.6, -15.5, -24.8, -25.5, -13.8, -33.4, -14.4, -15.9, -66.4, -23.2, -13.1, 1.71, 0, -22.3, 1.45, 6.63, 4.23, -66.9, -20.1, -27.5, 2.28, -33.8, -19.2, 5.3, -13.6, -7.8, 6.13, 3.47, -100, -36.3, 2.21% and inactive: 28.7%, 10.3% | growth ([2]; runs of 1998): active: 7.4, 3.64, -14.3, -17.6, 8.82, -34.4, -19.1, -13.5, -38.1, -13.1, -1.27, 2.67, 9.19, -33.8, -47.8, 7.83, -19.3, -19.7, -27.5, 4.04, -9.71, 1.64, 2.64, -22% and inactive: 17.8% | growth ([2]; runs of 1999): active: -59.6, -20.1, 0.022, -29, -28.1, 0.0616, -100, 1.68, 1.14, 9.5, 4.71, -55.4, -50, 0.805, 0.231, 2.61% | growth ([2]; runs of 2000): active: -62.4, 1.05, 2.32, 0.0699% | growth [3]: active: -1.02, -5.01, -3.84, 7.43% and inactive: 44.3, 39.1, 35.3, 20, 45.5, 32.6, 30.5, 35.5, 27.9, 42.5, 26.9, 32.3, 40.8, 21.1, 37.2%
